Reference: ChEMBL document CHEMBL1156829
Over roughly 5,400 compounds, “IFI” has its median near 2; the highest 2% begin near 22. The list shows a part of the results.

Test: NOVARTIS: Inhibition Frequency Index (IFI) - the number of HTS assays where a compound showed > 50% inhibition/induction, expressed as a percentage of the number of assays in which the compound was tested.
Type: functional
For C=CCn1c(=O)c(C(=O)NCC[N+](CC)(CC)CC=C)c(O)c2ccccc21, the IFI was 0%. With CO[C@H]1[C@@H](C)[C@@H]([C@H](C)C2O[C@@]3(CC[C@@](C)([C@H]4CC[C@@](C)([C@@H]5O[C@@H]([C@H]6O[C@](C)(O)[C@H](C)C[C@@H]6C)C[C@@H]5C)O4)O3)C[C@H](O)[C@@H]2C)O[C@@](O)([C@H](C)C(=O)O)[C@H]1C (stereo partly drawn) the IFI was 6.35%. COc1ccc(OC)c(-c2ccc(O)c(CNCCc3cccc(F)c3)c2)c1 showed an IFI of 1.92%. With C[n+]1c2ccccc2nc2ccc(NCCc3cnc[nH]3)cc21 the IFI was 15.4%. O=C(CS(=O)(=O)c1ccc(C(F)(F)F)cn1)NNS(=O)(=O)c1ccc(Cl)cc1 gave an IFI of 0.909%. COc1ccc(C=NNc2nc3ccccc3[nH]2)cc1OC showed an IFI of 7.69%. Compound CC(C)(C)CC(C)(C)Nc1c(-c2ccccc2OC(=O)c2ccc(C(F)(F)F)cc2)nc2ccccn12 has an IFI of 3.81%. COC(=O)CNC(=O)c1sc2ncn(CC(=O)Nc3ccccc3OC)c(=O)c2c1C showed an IFI of 0%. Work on CCc1cccc(NC(=O)CCCn2c(=O)c3cccn3c3ccccc32)c1 yielded an IFI of 3.7%. CCCC(=O)O[C@]1(C(=O)CCl)[C@@H](C)C[C@H]2[C@@H]3CCC4=CC(=O)C=C[C@]4(C)[C@@]3(F)C(=O)C[C@@]21C gave an IFI of 2.72%. Compound COC(=O)c1c(NC(=O)c2c(-c3ccccc3)noc2C)sc2c1CCC2 has an IFI of 1.45%. Work on Fc1ccccc1Nc1nc(NCC2CCCO2)c2ccccc2n1 (stereo not drawn) yielded an IFI of 0%. With CN(C)CCCNC(=O)c1ccc(-c2cncc(-c3cccc(O)c3)n2)cc1 the IFI was 4.17%. With CCc1c(C)nc(SCC(=O)NNC(C)=O)nc1O the IFI was 1.61%. Work on CC(=O)Nc1cc(C(=O)Nc2ccc(C3=NCCN3)cc2)ccc1C(=O)Nc1ccc(C2=NCCN2)cc1 yielded an IFI of 0%. Work on COc1ccc(-c2csc(Nc3ccc(O)cc3)n2)cc1OC yielded an IFI of 0%. CCOc1ccc(C(=O)CN2C(=O)c3ccccc3OC(C(C)C)C2=O)cc1[N+](=O)[O-] (stereo not drawn) showed an IFI of 0%. Compound Cc1ccc(NC2=C(N3CCCCC3)C(=O)c3ccccc3C2=O)cc1 has an IFI of 3.91%. O[C@@H]1[C@H]2c3cc4c(cc3CN3CCC(=C[C@@H]1O)[C@H]23)OCO4 gave an IFI of 10.6%. BrC(Br)(Br)c1ncc(-c2ccccc2)cn1 gave an IFI of 7.14%. Work on Cc1cc(C)n(N=Cc2cccc(Cl)c2)c(=O)c1C#N yielded an IFI of 0%. Compound C=CCN1CCN(C(c2ccccc2F)c2nnnn2Cc2ccco2)CC1 (stereo not drawn) has an IFI of 0%. Compound O=C(OC(C(=O)NCc1ccco1)c1ccc(F)cc1)c1ccco1 (stereo not drawn) has an IFI of 5.56%. With COc1ccc(Cl)cc1NC(=O)C1c2ccccc2C(=O)N(CC(C)C)C1c1cccs1 (stereo not drawn) the IFI was 9.09%. O=C(NCc1ccccc1)c1cnc(NCCCN2CCCC2)nc1NCCc1ccccc1 gave an IFI of 1.91%. With O=c1c2cnn(-c3ccccc3)c2nc(-c2ccccc2F)n1-c1ccc(Br)cc1 the IFI was 2.25%. CC[n+]1c(/C=C2\Sc3ccc(OC)cc3N2C)ccc2cc(C)ccc21 showed an IFI of 14.3%. Compound C[n+]1oc(/C=C/c2ccccc2)cc1/C=C/c1ccccc1 has an IFI of 19.4%. Compound O=C(c1cccs1)N(Cc1cccs1)c1ccc([N+](=O)[O-])cc1 has an IFI of 1.96%. With CCN(CC)CCNc1ncnc2c1[nH]c1ccc(Br)cc12 the IFI was 5.66%. Cc1cc(N2CCC(N(C)C3CCCC3)CC2)nc2cc(O)ccc12 showed an IFI of 4.54%. Compound O=C(COc1ccc(Cl)cc1)N1CCCn2cccc2C1c1ccc(Cl)cc1 (stereo not drawn) has an IFI of 0.971%. With CC(=O)Nc1nc(C)c(-c2csc(Nc3ccc(Cl)cc3)n2)s1 the IFI was 5.81%. For COc1ccccc1-n1c(C(C)N2CCN(C(=O)c3cc([N+](=O)[O-])cc([N+](=O)[O-])c3)C(C)C2)nc2ccccc2c1=O (stereo not drawn), the IFI was 1.87%. With O=c1c2sccc2nc(SCc2cc(=O)n3ccccc3n2)n1Cc1ccccc1 the IFI was 0%. With CCCC(=O)NC(C(=O)N1CCN(C(c2ccccc2)c2ccccc2)CC1)C(C)C (stereo not drawn) the IFI was 0.943%. With CCOC(=O)c1cnc2c3c(ccc2c1O)CCCC3 the IFI was 2.22%. With CCN1CCN(C(=O)CS(=O)(=O)Cc2nc(-c3cccc(OC)c3)oc2C)CC1 the IFI was 0%. With COc1cc(C2C3=C(CC(C)(C)CC3=O)Nc3ccccc3N2C(=O)C(C)C)cc(OC)c1OC (stereo not drawn) the IFI was 0%. Compound O=C(NCc1ccco1)c1cccc(Cl)c1Cl has an IFI of 0%. In the case of CC1CCCCN1CCCNc1ncc(C(=O)NCc2ccccc2)c(NCCc2ccccc2)n1 (stereo not drawn), the IFI was 3.92%. With CN1C=CC=C/C1=C\C=C1\C=Nc2ccccc21 the IFI was 7.14%. Compound CC1=C(CC(=O)c2cccc([N+](=O)[O-])c2)C(=O)c2ccccc2C1=O has an IFI of 2.44%. With NC(=O)C(Cc1ccccc1)Nc1ccc([N+](=O)[O-])cc1[N+](=O)[O-] (stereo not drawn) the IFI was 0%. With OCCc1cn(-c2ccccc2)c2ccccc12 the IFI was 0%. In the case of Cc1ccccc1-c1cnnc(NCC2CCCCO2)n1 (stereo not drawn), the IFI was 0%. COc1ccc(N2C(=O)[C@@H]3C[C@H]2CN3C(=O)c2cccc(Cn3nc(C)cc3C)c2)cc1Cl showed an IFI of 1.87%. Work on FC(F)(F)c1ccccc1NC(=S)N1CCCN(c2nc3ccc(Cl)cc3s2)CC1 yielded an IFI of 6.2%. Cc1oc(-c2cccc(C(F)(F)F)c2)cc1C(=O)O gave an IFI of 0%. Work on OC(CN1CCN(C/C=C/c2ccccc2)CC1)Cn1c2ccc(Br)cc2c2cc(Br)ccc21 (stereo not drawn) yielded an IFI of 3.03%. With COc1ccc(OCC(=O)Nc2cccc(-c3nc4ncccc4o3)c2)cc1 the IFI was 2.15%. With CCC[n+]1ccc(/C=C/c2ccc(Br)cc2)cc1 the IFI was 0%. O=C(NCc1nnc(SCC2CCCO2)n1Cc1ccccc1)c1cccc2ccccc12 (stereo not drawn) gave an IFI of 1.72%. In the case of C[n+]1ccn(-c2ccc(C(=O)c3ccc(-n4cc[n+](C)c4)cc3)cc2)c1, the IFI was 1.41%. In the case of CCOc1ccc2nc(C)cc(Nc3ccc(OCc4ccccc4Cl)cc3)c2c1, the IFI was 2.38%. COc1ccc(C(=O)C[n+]2ccc3c(c2)nc(-c2ccc(OC)cc2OC)n3C)cc1 gave an IFI of 0%. With CCCN1CCC(N2C[C@@H](NC3CCCCCCC3)C[C@H]2C(=O)NCCc2ccc3c(c2)OCO3)CC1 the IFI was 0.99%. CCC1CCCCN1S(=O)(=O)c1cc(Br)cc2c1N(C(=O)C1CC1)CC2 (stereo not drawn) gave an IFI of 0%. For CCc1ccc(Nc2cc(C)nc3nc(C)nn23)cc1, the IFI was 0%. COc1ccc(CC(=O)Nc2sc3c(c2C(=O)Nc2cccc4ccccc24)CCCC3)cc1 gave an IFI of 0%. Compound O=c1c2c3c(sc2ncn1Cc1cccc(Cl)c1)CC(N1CCCCC1)CC3 (stereo not drawn) has an IFI of 1.75%. In the case of Cc1oc2c(cc(NS(=O)(=O)c3ccc(F)cc3)c3ccccc32)c1C(=O)OCc1ccccc1, the IFI was 0%. c1ccc([B-](c2ccccc2)(c2ccccc2)c2ccccc2)cc1 showed an IFI of 1.27%. Work on O=C(Cn1c(-c2ccccc2)c[n+]2ccsc12)c1ccccc1 yielded an IFI of 3.17%. For CC(=O)N1CCc2cc(Br)cc(S(=O)(=O)N3CCCC(C)C3)c21 (stereo not drawn), the IFI was 0%. Work on O=C(Nc1ccccc1Cl)c1cc2ccccc2cc1O yielded an IFI of 12.3%. Work on CCOC(=O)c1cccc(OC(=O)c2ccccc2)c1 yielded an IFI of 0%. Compound O=C(CN1CCN(C(=O)c2ccco2)CC1)Nc1ccccc1Br has an IFI of 1.67%. In the case of Nc1cc(C(=O)Nc2ccc(C3=NCCCN3)cc2)ccc1C(=O)Nc1ccc(C2=NCCCN2)cc1, the IFI was 2.63%. For O=C(Nc1ccc(-c2nc3ccc(-c4nc5ccc(NC(=O)c6ccccc6[N+](=O)[O-])cc5[nH]4)cc3[nH]2)cc1)c1ccccc1[N+](=O)[O-], the IFI was 0%. O=C(NCCc1ccc(Cl)cc1)C1CCCN(c2nnc(N3CCCC3=O)s2)C1 (stereo not drawn) showed an IFI of 2.04%. CCN(CC)c1cc(-c2ccccn2)nc(-c2ccccn2)n1 showed an IFI of 15.4%. Work on Cc1cccc(NC(=O)c2cc(Cl)nc3ccccc23)c1 yielded an IFI of 2.08%. CCN1/C(=C/c2sc3ccc(-c4ccccc4)cc3[n+]2CCO)C=Cc2cc(OC)ccc21 showed an IFI of 7.14%. O=[N+]([O-])c1ccc(S(=O)(=O)NCCCCNc2ccnc3cc(Cl)ccc23)cc1 gave an IFI of 3.74%. For CC(C)(C)CC(C)(C)Nc1c(-c2ccccc2OC(=O)C2CCCCC2)nc2ccccn12, the IFI was 2.83%. With COc1ccc(C2c3cccn3-c3ccccc3N2C(=O)CN(C(=O)Nc2ccc(C(F)(F)F)cc2)C2CC2)cc1 (stereo not drawn) the IFI was 4.2%. With CN(C)CCCNCc1cc(-c2cccnc2)ccc1O the IFI was 1.71%. O=C(COc1cccc(Cl)c1)Nc1nccs1 showed an IFI of 5.95%. In the case of CC1Cc2ccc(F)cc2CN1C(=O)c1ccc(COc2ccccc2Br)o1 (stereo not drawn), the IFI was 2.86%. CC(C)CN1CCC(O)(c2ccc3oc(C(=O)Nc4ccc5c(c4)OCO5)cc3c2)CC1 gave an IFI of 0.848%. O=C(CCl)NCCCCNc1ccnc2cc(Cl)ccc12 gave an IFI of 2.04%. Work on Cc1cc(Nc2ccc(N(C)C)cc2)n2ncnc2n1 yielded an IFI of 0%. In the case of COc1ccc2nc(C)cc(Nc3ccc(N4CCN(C)CC4)cc3)c2c1, the IFI was 5.59%. Work on N=c1n(CCN2CCCC2)c2ccccc2n1CC(O)c1ccc(Cl)c(Cl)c1 (stereo not drawn) yielded an IFI of 8.2%. CC[n+]1c(C)cc2c(sc3ccccc32)c1C gave an IFI of 9.26%. Compound COC1=CC(=O)c2c(ccc3cc(O)ccc23)C1=O has an IFI of 7.02%. Work on CN1CCc2c(sc3nc(SCc4ccc(F)cc4)n(-c4ccccc4)c(=O)c23)C1 yielded an IFI of 2.5%. With CN(C)c1ccc(C2N(C)c3ccccc3N2C)cc1 the IFI was 5.73%. With c1ccc(-c2c3c(cc4ccccc24)C[N+]2(CCCC2)C3)cc1 the IFI was 3.03%. With COc1cccc(C2C(C(=O)Nc3ccccc3)=C(C)N=c3sc(=Cc4c[nH]c5ccccc45)c(=O)n32)c1 (stereo not drawn) the IFI was 2.44%. Cc1ccccc1C=NNc1nc2ccccc2[nH]1 gave an IFI of 0%. O=C(Nc1ccc(N2CCCCC2)cc1)c1cc2ccccc2o1 gave an IFI of 10.9%. With O=C1c2cccc3cccc(c23)C(=O)N1c1ccc(-c2c3ccccc3c(-c3ccc(N4C(=O)c5cccc6cccc(c56)C4=O)cc3)c3ccccc23)cc1 the IFI was 0%. For CC(C)c1cccc(C(C)C)c1NC(=O)N(Cc1ccccc1)C(C)c1nc2ccccc2c(=O)n1-c1ccc(Cl)cc1 (stereo not drawn), the IFI was 4.21%. Work on Cc1c2cnn(CC(=O)O)c(=O)c2c(C)n1Cc1cccc(Cl)c1 yielded an IFI of 0%. Compound Cc1ccccc1Cn1c(C)c[n+]2ccsc12 has an IFI of 0%. O=C(O)c1ccc2c(c1)N=C(c1ccccc1)N(Cc1cccnc1)C2 showed an IFI of 1.22%.
